Source: PubChem BioAssay AID686979 (National Center for Advancing Translational Sciences (NCATS), 2013)
Several values for one entry are separate records, joined by “and”; a condition that tells them apart may be missing. Equal entries are not always repeated. The campaign covered roughly 420,000 compounds. About 50,000 (12%) were called active. The inconclusive results got no clear call from the source; some entries with a clear call stand among them for comparison. Calls come from the whole dose curve; as a rule, active = well fitted inhibition curve with a large enough effect; inconclusive = small, poorly fitted or top-dose-only effect; inactive = flat fitted curve, though single readings scatter. No potency is given beside an inconclusive call; the fits are too rough.

Experiment: qHTS for Inhibitors of human tyrosyl-DNA phosphodiesterase 1 (TDP1): qHTS in cells in presence of CPT; note: nearly all actives have a fitted effect of over 55% in size
Settings: chicken DT40 Tdp1-/-;hTDP1 cells + 20 nM CPT, ATP luminescence, 48 h; activity change, negative = growth inhibition: at 46.2 µM (top of the series)
Procedure, shortened: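 Chicken DT40 Tdp1-/- cells stably complemented with human TDP1 were seeded at 400 cells/well in medium containing 20 nM camptothecin, exposed to pin-transferred compounds, and grown at 37 °C for at least 48 hr. Viability was read as ATP luminescence.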
% is set by controls: 0 for no effect and ±100 for the full control effect; potency is the fitted concentration of half-maximal effect; tags give direction and shape of the fitted curve.

**Q.** Which Potency does the source give for `CCOC(=O)c1ccc(NC(=O)CC2C(=O)OCCN2CC)cc1` (configuration not stated) here?
**A.** Its Potency is active: 3.26 µM and active: 20.6 µM.

**Q.** With `O=C(CNC(=O)c1cccc(Br)c1)N/N=C/c1cn[nH]c1-c1ccccc1` as the molecule, how does the Potency read?
**A.** Its Potency is inconclusive [inhibitor, single point].

**Q.** Which Potency does the source give for `COc1cccc(/C=C2\SC(N3CCCC(C)C3)=NC2=O)c1OC` (configuration not stated) here?
**A.** Its Potency is inconclusive [inhibitor, single point].

**Q.** For `CC(=O)Nc1ccccc1-c1cccc2nccn12`, which Potency is on record?
**A.** Its Potency is “inactive”.

**Q.** With `O=C(CC12CC3CC(CC(C3)C1)C2)NC(=S)NCc1ccco1` as the molecule, how does the Potency read?
**A.** Its Potency is inconclusive [inhibitor, single point].

**Q.** With `Cc1ccc(NC(=O)Nc2ccc3snnc3c2)cc1C` as the molecule, how does the Potency read?
**A.** The Potency was inconclusive [inhibitor, single point].

**Q.** With `CCS(=O)(=O)N1Cc2ccccc2CC1C(=O)Nc1nc2ccc(F)cc2s1` (configuration not stated) as the molecule, how does the Potency read?
**A.** The Potency was “inactive”.

**Q.** For `COc1ccc(CNc2nc3ccccc3n2C(C)C)c(O)c1`, which Potency is on record?
**A.** The Potency was inconclusive [inhibitor, single point].

**Q.** With `O=C(NCc1ccco1)c1ccc2c(c1)N(Cc1ccc(Cl)cc1)C(=O)c1ccccc1S2=O` (configuration not stated) as the molecule, how does the Potency read?
**A.** The Potency was inconclusive [inhibitor, single point].

**Q.** Which Potency does the source give for `Nn1c(SCCOc2ccc(Cl)cc2)nnc1-c1cccnc1` here?
**A.** Its Potency is inconclusive [inhibitor, single point].

**Q.** Which Potency does the source give for `CCN(c1ccccc1)c1nnc(NC(=O)Nc2ccccc2F)s1` here?
**A.** The Potency was inconclusive [inhibitor, full curve].

**Q.** Which Potency does the source give for `CC(CC(=O)Nc1ncc([N+](=O)[O-])s1)c1ccccc1` (configuration not stated) here?
**A.** Its Potency is inconclusive [inhibitor, single point].

**Q.** For `Cn1ncc2c(Nc3cccc4ccccc34)ncnc21`, which activity change, negative = growth inhibition is on record?
**A.** Its activity change, negative = growth inhibition is inconclusive: -30.1% [inhibitor].

**Q.** Which Potency does the source give for `COc1ccc(NC(=S)NNC(=S)Nc2cccc(C(F)(F)F)c2)cc1` here?
**A.** Its Potency is active: 5.8 µM.

**Q.** With `Cn1cnc2c(cnn2C)c1=O` as the molecule, how does the Potency read?
**A.** Its Potency is “inactive”.

**Q.** With `COc1ccccc1NC(=S)NC(NC(=O)CC(C)C)C(Cl)(Cl)Cl` (configuration not stated) as the molecule, how does the Potency read?
**A.** The Potency was inconclusive [inhibitor, single point].

**Q.** Which Potency does the source give for `CCN(C(=O)C1CCCN(S(=O)(=O)c2c(C)noc2/C=C/N(C)C)C1)c1cccc(C)c1` (configuration not stated) here?
**A.** Its Potency is inconclusive [inhibitor, single point].

**Q.** For `COC(=O)c1ccc(Cn2c(=O)cc(C)c3c(C)nn(C)c32)cc1`, which Potency is on record?
**A.** The Potency was active: 10.3 µM.

**Q.** For `CCOC(=O)C1(Cc2ccccc2C(F)(F)F)CCN(CC(O)CO)CC1` (configuration not stated), which Potency is on record?
**A.** The Potency was “inactive”.

**Q.** Which Potency does the source give for `Cc1ccc2c(CNCc3cccs3)c(C(=O)O)n(Cc3ccc(F)cc3)c2c1` here?
**A.** Its Potency is active: 6.51 µM.

**Q.** Which Potency does the source give for `O=C(O)c1ccc(N/N=C/c2ccc(-c3cc(Cl)ccc3Cl)o2)cc1` here?
**A.** The Potency was active: 25.9 µM.

**Q.** Which activity change, negative = growth inhibition does the source give for `COc1ccc2cc(S(=O)(=O)NCCCN3CCOCC3)ccc2c1` here?
**A.** The activity change, negative = growth inhibition was inconclusive: -32.1% [inhibitor].

**Q.** With `Cc1ccc2c(=O)cc(C(=O)Nc3sc4c(c3C(=O)NCc3ccco3)CCCC4)oc2c1C` as the molecule, how does the Potency read?
**A.** Its Potency is “inactive”.

**Q.** With `O=C(NC1CCCC1)c1cc2c(ccc3ccccc32)o1` as the molecule, how does the Potency read?
**A.** The Potency was inconclusive [inhibitor, single point].

**Q.** For `CC1(C)C2CC[C@]3(C)C(CC=C4[C@@H]5C[C@@](C)(CO)[C@@H](O)C[C@]5(C(=O)O)CC[C@]43C)[C@@]2(C)CC[C@@H]1O` (some centres not stated), which Potency is on record?
**A.** The Potency was “inactive”.

**Q.** For `CC(C)(C)C(=O)N1c2ccccc2CCc2ccccc21`, which Potency is on record?
**A.** The Potency was inconclusive [inhibitor, single point].

**Q.** Which Potency does the source give for `N#C/C(=C/c1ccc(N2CCCCC2)cc1)c1cccc(F)c1` here?
**A.** Its Potency is inconclusive [inhibitor, single point].

**Q.** For `CCN(C[C@H]1N[C@@](Cc2ccccc2)(C(=O)OC)[C@H]2C(=O)N(Cc3ccccc3)C(=O)[C@@H]12)C(=O)COc1ccccc1`, which Potency is on record?
**A.** The Potency was active: 20.6 µM.

**Q.** For `CC(=O)CSc1nc(-c2ccccc2)[nH]c1S(=O)(=O)c1ccc(C)cc1`, which Potency is on record?
**A.** Its Potency is inconclusive [inhibitor, partial curve].

**Q.** Which Potency does the source give for `CCOc1ccc(Sc2cc(C(=O)NCc3ccc(F)cc3)c3ccccc3n2)cc1` here?
**A.** The Potency was “inactive”.

**Q.** Which Potency does the source give for `Cc1oc(C)c2c(=O)ccc3c(c12)OC(N)=C(C#N)C3c1ccccc1` (configuration not stated) here?
**A.** The Potency was inconclusive [inhibitor, single point].

**Q.** Which Potency does the source give for `CCOC(=O)c1c(NC(=O)C(C)S(=O)(=O)c2cn(CC)c3ccccc23)sc2c1CCCC2` (configuration not stated) here?
**A.** The Potency was inconclusive [inhibitor, single point].

**Q.** Which Potency does the source give for `COc1cccc2sc(N3CCN(C(=O)c4ccc([N+](=O)[O-])o4)CC3)nc12` here?
**A.** Its Potency is active: 20.6 µM.

**Q.** Which Potency does the source give for `CCc1nnc2n1N=C(c1ccc(OC)cc1)CS2` here?
**A.** Its Potency is “inactive”.

**Q.** Which Potency does the source give for `Cc1cc(C(=O)NC2CCCCC2C)c2ccccc2n1` (configuration not stated) here?
**A.** The Potency was “inactive”.

**Q.** Which Potency does the source give for `Cc1ccc(Cn2c(C(C)Nc3nc(-c4ccc(C)cc4)cs3)nc3cc(Cl)c(Cl)cc32)cc1` (configuration not stated) here?
**A.** Its Potency is inconclusive [inhibitor, single point].

**Q.** With `O=C(NCc1ccncc1)[C@@H]1CCCN1C(=O)[C@@H]1CCCN1C(=O)c1ccccc1` as the molecule, how does the Potency read?
**A.** The Potency was “inactive”.

**Q.** For `CC(CC12CC3CC(CC(C3)C1)C2)NCc1ccccc1O` (configuration not stated), which Potency is on record?
**A.** Its Potency is active: 14.6 µM.

**Q.** For `Cn1c(C(=O)OCC(=O)NCc2ccco2)cc2sccc21`, which Potency is on record?
**A.** The Potency was inconclusive [inhibitor, single point].

**Q.** Which Potency does the source give for `CN(C)c1ccc(C(CNC(=O)COc2ccccc2)N2CCOCC2)cc1` (configuration not stated) here?
**A.** Its Potency is “inactive”.

**Q.** Which Potency does the source give for `COc1ccccc1C(=O)NCC(=O)N/N=C/c1cc(Br)ccc1OC(=O)/C=C\c1ccco1` here?
**A.** The Potency was inconclusive [inhibitor, single point].

**Q.** With `CCOc1ccc(NC(=O)Nc2c(C)n(C)n(-c3ccccc3)c2=O)cc1` as the molecule, how does the Potency read?
**A.** Its Potency is “inactive”.

**Q.** With `COc1ccc(-n2cc(C(=O)Nc3cc([N+](=O)[O-])ccc3OC)c3ccccc3c2=O)cc1` as the molecule, how does the Potency read?
**A.** The Potency was “inactive”.

**Q.** For `Cn1ncc2c(NCc3cccc(Cl)c3)ncnc21`, which Potency is on record?
**A.** The Potency was active: 14.6 µM.

**Q.** Which Potency does the source give for `CCN(CC)S(=O)(=O)c1ccc2c(c1)N(CC(=O)NCc1ccccc1)C(=O)CS2` here?
**A.** The Potency was inconclusive [inhibitor, single point].

**Q.** With `COc1ccc(Br)cc1Cn1nnc(C(=O)Nc2ccc3c(c2)OCCO3)c1N` as the molecule, how does the Potency read?
**A.** Its Potency is inconclusive [inhibitor, single point].

**Q.** For `O=C(CN1C(=O)CCSc2ccc(S(=O)(=O)N3CCCC3)cc21)Nc1cccc(Cl)c1`, which Potency is on record?
**A.** Its Potency is active: 23.1 µM.
